Measurements published in patent US9969812B2, “Anti human Notch4 antibody” (Eisai R&D Management Co., Ltd., priority 2015, dated 2018).

Assays:
[1] = biological target: T1, Human Notch4-NRR Fusion Protein (Homo sapiens, UniProt Q99466); experiment: Kinetic analysis, captured Human Notch4-NRR Fc fusion protein, humanized antibody injected; format: binding; settings: Table 30, Human Notch4-NRR Fc fusion
T1 construct: Human Notch4-NRR domain Fc fusion proteins were expressed with a CHO cell line; Fc; made in house; host or cells: CHO cell line (antigen captured from culture supernatant)
T1 sequence (Q99466 1046-1445 limits assumed): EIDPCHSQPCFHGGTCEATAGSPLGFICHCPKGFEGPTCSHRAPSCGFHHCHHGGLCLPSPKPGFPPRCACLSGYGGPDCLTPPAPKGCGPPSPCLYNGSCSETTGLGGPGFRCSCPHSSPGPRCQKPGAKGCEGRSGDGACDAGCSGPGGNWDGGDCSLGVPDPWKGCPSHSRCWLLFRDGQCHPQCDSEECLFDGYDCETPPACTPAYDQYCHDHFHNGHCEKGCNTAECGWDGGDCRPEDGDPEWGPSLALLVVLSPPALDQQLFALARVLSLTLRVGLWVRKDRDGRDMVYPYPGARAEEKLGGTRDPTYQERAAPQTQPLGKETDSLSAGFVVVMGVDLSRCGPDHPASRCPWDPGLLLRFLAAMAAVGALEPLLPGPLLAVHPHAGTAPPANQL
Experimental: Kinetic analysis of further anti-Notch4 inhibitory humanized antibodies was carried out as follows. Human Notch4-NRR domain Fc fusion proteins were expressed with a CHO cell line. The antigen in the culture supernatant was captured by the anti-human Notch4 antibody fixed on a CM5 sensor chip that recognizes different epitopes of human Notch4. The humanized anti-human Notch4 antibody was then injected onto the sensor chip at various concentrations. The interaction and disassociation constants thereof were calculated according to manufacturer's instructions.
In the table below, e.g. the description “HK2L3 (Lys-)” means that the heavy chain variable region of the humanized anti-human Notch4 antibody employed in the experiment is the heavy chain variable region of the humanized anti-human Notch4 antibody heavy chain HK2 in Example 1, light chain variable region is the light chain variable region of the humanized anti-human Notch4 antibody light chain L3 in Example 1, and lysine (Lys) located at the C-terminal of the heavy chain of a common human antibody is deleted in this antibody. Those without the description “(Lys-)” mean that Lys located at the C-terminal of the heavy chain of the human antibody is not deleted.

Human Notch4-NRR = biological target: T2, Human Notch4-NRR (Homo sapiens, UniProt Q99466); experiment: BIACORE kinetic analysis, Antibody B captured, Notch4-NRR-SEAP-His injected; format: binding
T2 construct: Human, monkey, mouse, and rat Notch4-NRR domains were prepared as fusion proteins; secretory alkaline phosphatase (SEAP); 10x His; made in house; host or cells: Expi293F cells
T2 sequence (Q99466 1046-1445 limits assumed): T1 sequence (Q99466 1046-1445 limits assumed)
Experimental: (§1) Kinetic analysis of the interaction of human, cynomolgus monkey, mouse, and rat Notch4-NRR domains with Antibody B was carried out with BIACORE. Antibody B was purified with protein A affinity chromatography from the culture supernatant of a stable CHO cell line transfected with Antibody B. Human, monkey, mouse, and rat Notch4-NRR domains were prepared as fusion proteins with secretory alkaline phosphatase (SEAP) and 10× histidine tag. The genes for these proteins were transfected into Expi293F cells in Opti-MEM (INVITROGEN) using ExpiFectamine 293. These cells were cultured in Expi293 Expression Medium (INVITROGEN). Briefly, cells were diluted to 7.5×10^7 cells/25.5 mL, and transfected by ExpiFectamine 293 reagent on Day 0. About 16 hours after transfection, 150 uL of ExpiFectamine 293 Transfection Enhancer 1 and 1.5 mL of ExpiFectamine 293 Transfection Enhancer 2 were added to each flask. The supernatant was collected on Day 4. These antigens were purified with Ni-NTA Superflow column (QIAGEN). The interaction was analyzed as below. The purified Antibody B was captured by anti-human IgG Fc antibody fixed on a CM5 sensor chip (GE healthcare). The purified Notch4-NRR fusion proteins were injected onto the sensor chip at 8 different concentrations, and the interaction and dissociation thereof were observed as per manufacturer's instructions.

[2] = test system: Cynomolgus monkey Notch4-NRR; experiment: as above; format: binding
Experimental: as §1

Mouse Notch4-NRR = experiment: as above; format: binding
Experimental: as §1

[3] = test system: Calu6 xenograft (human non-small cell lung cancer cell line); experiment: Calu6 xenograft model: antitumor effect and blood perfusion; format: in vivo, nude mice; settings: 1, 3 or 10 mg/kg tail vein
Experimental: Human non-small cell lung cancer cell line Calu6 (ATCC number HTB-56) cultured in an EMEM culture medium comprising 10% FBS, MEM non-essential amino acids, sodium pyruvate, and penicillin/streptomycin was prepared to a concentration of 1.6×10^8 cells/mL with EMEM culture medium, and mixed with Matrigel™ (CORNING Cat#354234) at 1:1 to prepare a cell suspension of 8.0×10^7 cells/mL.
Antibody B was diluted immediately before administration so that vehicle solution (25 mM Histidine, 250 mM Sucrose, and 0.05% Tween80 (pH5.3)) and saline is 1:9 to obtain 0.1, 0.3, and 1.0 mg/mL evaluation specimens (1, 3, and 10 mg/kg administration group, respectively). […] Relative tumor volume RTV was calculated for each of the Control IgG group and Antibody B administration group with the following formula and shown in FIG. 2A. […]
Tumor blood perfusion was evaluated by determining the fluorescence by nucleus staining of cells around blood vessels due to a fluorescent dye (Hoechst) injected in the tail vein (Funahashi et al. (2014), Cancer Sci., 105(10), 1334-42.). […]
Tumor blood vessels of frozen sections were subjected to immunofluorescent staining with anti-CD31 antibody (FITC conjugated, BD Pharmingen Cat#553372), and Hoechst fluorescence of tumor blood vessel hotspots (5 per tumor) were photographed with BIOREVO fluorescence microscope (KEYENCE, BZ-9000). […]

B1: Antibody B: humanized anti-human Notch4 antibody, heavy chain variable region HK3, light chain variable region L3, C-terminal Lys deleted (antibody)
heavy: EVQLVESGGGLVQPGGSLRLSCAASGFTFSSYGMSWVRQAPGKGLELVATINSNGGRTYYPDSVKGRFTISRDNSKNTLYLQMGSLKAEDMAVYYCARDQGFAYWGQGTLVTVSSASTKGPSVFPLAPCSRSTSESTAALGCLVKDYFPEPVTVSWNSGALTSGVHTFPAVLQSSGLYSLSSVVTVPSSNFGTQTYTCNVDHKPSNTKVDKTVERKCCVECPPCPAPPAAAPSVFLFPPKPKDTLMISRTPEVTCVVVDVSHEDPEVQFNWYVDGVEVHNAKTKPREEQFNSTFRVVSVLTVVHQDWLNGKEYKCKVSNKGLPAPIEKTISKTKGQPREPQVYTLPPSREEMTKNQVSLTCLVKGFYPSDIAVEWESNGQPENNYKTTPPMLDSDGSFFLYSKLTVDKSRWQQGNVFSCSVMHEALHNHYTQKSLSLSPG
light: EIVMTQSPATLSVSPGERATLSCKASQDVGTAVAWYQQKPGQAPRLLIYWASTRHTGIPARFSGSGSGTEFTLTISSLQSEDFAVYYCQQYSSYPWTFGQGTKVEIKRTVAAPSVFIFPPSDEQLKSGTASVVCLLNNFYPREAKVQWKVDNALQSGNSQESVTEQDSKDSTYSLSSTLTLSKADYEKHKVYACEVTHQGLSSPVTKSFNRGEC
Rmax1 (RU) [1]: 26.2 RU | ka [1]: 1.66e+06 M⁻¹ s⁻¹ | kd [1]: 0.00071 s⁻¹ | Ka (Human Notch4-NRR): 317000 M⁻¹ s⁻¹ | Kd (Human Notch4-NRR): 0.00118 s⁻¹ | Ka [2]: 295000 M⁻¹ s⁻¹ | Kd [2]: 0.00106 s⁻¹ | Ka (Mouse Notch4-NRR): 601000 M⁻¹ s⁻¹ | Kd (Mouse Notch4-NRR): 0.00727 s⁻¹ | blood perfusion suppressive effect (Hoechst fluorescence area) ([3]; tumors sampled Day 8, vs Control IgG): significant blood perfusion suppressive effect at all dosages | antitumor effect (relative tumor volume RTV) ([3]; twice a week, vs Control IgG 10 mg/kg): significant antitumor effect at all dosages
